The record followed here is the supplement of paper PMC4967469.

Usually IC50 stands for the concentration needed to halve the response being measured.

By IC50 is meant the dose at which the fit gives 50% viability; a fit beyond the top or the lowest dose is shown as a bound at that dose. AUC is the area under the same curve over the 256-fold range up to the top dose, as a fraction; values near 1 show little effect. For some of these results: Any top dose called inferred comes from the curve model; the source does not state it. For some of these results: Drugs with an entry number were screened twice under separate entries, and the two screens often disagree.

Common to all, as to assay: Viability of human cancer cell lines after 72 h of drug (GDSC screen)
Compound in one experiment: CC(C)CC(=O)Nc1n[nH]c2c1CN(C(=O)C1CCN(C)CC1)C2(C)C [PHA-793887]
The conditions noted are these: top dose 10.24 µM. How it is done: (§1)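 Human cancer cell lines in 384-well plates, medium with 10% serum, drug for 72 h over a 256-fold dose range (nine 2-fold or five 4-fold steps up to the top dose). Adherent lines were fixed and stained with the nucleic acid dye Syto60, suspension lines read with resazurin; signal relative to control wells, capped at 0 and 100%. One two-parameter sigmoid per drug and line, fitted in a mixed model over all curves with the slope shared within a line.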

Compound in a further experiment: C/C(=C\c1csc(C)n1)[C@@H]1C[C@@H]2O[C@]2(C)CCC[C@H](C)[C@H](O)[C@@H](C)C(=O)C(C)(C)[C@@H](O)CC(=O)O1 [Epothilone B]
To be noted: top dose 0.032 µM; top dose inferred. How it is done: as §1

Compound in another experiment: NC(=O)Nc1sc(-c2ccc(F)cc2)cc1C(N)=O [TPCA-1]
The conditions noted are these: top dose 20 µM. How it is done: as §1

Compound in a further experiment: CCCS(=O)(=O)Nc1ccc(F)c(C(=O)c2c[nH]c3ncc(Cl)cc23)c1F [PLX4720]
To be noted: top dose 10 µM. How it is done: as §1

Compound in a further experiment: C[C@@H](N)c1ccc(C(=O)Nc2ccnc3[nH]ccc23)cc1 [Y-39983]
The conditions noted are these: top dose 20 µM; top dose inferred. How it is done:
as §1

The mark [1] stands for this setting: screen: GDSC drug entry 1371, top dose inferred.

On to “LCLC-103H (large cell lung carcinoma, adherent)”, for which the AUC with PHA-793887 worked out at 0.698; with Epothilone B it was 0.205; with TPCA-1 it was 0.861; in the experiment with PLX4720 (screen: GDSC drug entry 1036), 0.978; with PLX4720 (setting [1]) it was 0.988; with Y-39983 it was 0.945. Also, the IC50 with PHA-793887 is 2.16 µM; with Epothilone B it was 0.000301 µM; in the experiment with TPCA-1 it was 14.4 µM; with PLX4720 (screen: GDSC drug entry 1036), greater than 10 µM; in the experiment with PLX4720 (setting [1]) it was greater than 10 µM; with Y-39983, greater than 20 µM.
Regarding “LK-2 (lung squamous cell carcinoma, adherent)”, the AUC with PHA-793887 came out at 0.887; in the experiment with Epothilone B, 0.58; with TPCA-1 it was 0.775; in the experiment with PLX4720 (screen: GDSC drug entry 1036) it was 0.989; with PLX4720 (setting [1]) it was 0.988; with Y-39983, 0.876. Besides, the IC50 is greater than 10.2 µM with PHA-793887; 0.00326 µM with Epothilone B; 7.48 µM with TPCA-1; greater than 10 µM in the experiment with PLX4720 (screen: GDSC drug entry 1036); greater than 10 µM with PLX4720 (setting [1]); 17.9 µM with Y-39983.
LN-18 (glioma, adherent): the AUC was determined as 0.985 with PHA-793887; 0.459 with Epothilone B; 0.982 with TPCA-1; 0.979 with PLX4720 (screen: GDSC drug entry 1036); 0.991 in the experiment with PLX4720 (setting [1]); 0.972 with Y-39983. Further, the IC50 is greater than 10.2 µM with PHA-793887; 0.00158 µM with Epothilone B; greater than 20 µM in the experiment with TPCA-1; greater than 10 µM with PLX4720 (screen: GDSC drug entry 1036); greater than 10 µM with PLX4720 (setting [1]); greater than 20 µM with Y-39983.
On to LN-229 (glioma, adherent), for which the AUC with PHA-793887 came out at 0.969; in the experiment with Epothilone B, 0.697; with TPCA-1, 0.979; with PLX4720 (screen: GDSC drug entry 1036), 0.97; with PLX4720 (setting [1]) it was 0.968; in the experiment with Y-39983, 0.967. For the same cell line, the IC50 with PHA-793887 is greater than 10.2 µM; with Epothilone B it was 0.00714 µM; in the experiment with TPCA-1, greater than 20 µM; with PLX4720 (screen: GDSC drug entry 1036) it was greater than 10 µM; with PLX4720 (setting [1]), greater than 10 µM; in the experiment with Y-39983, greater than 20 µM.
As to LN-405 (glioma, adherent), the AUC with PHA-793887 was determined as 0.922; with Epothilone B, 0.913; with TPCA-1, 0.95; with PLX4720 (screen: GDSC drug entry 1036) it was 0.925; with PLX4720 (setting [1]), 0.963; with Y-39983, 0.963. Besides, the IC50 was greater than 10.2 µM in the experiment with PHA-793887; greater than 0.032 µM in the experiment with Epothilone B; greater than 20 µM with TPCA-1; greater than 10 µM with PLX4720 (screen: GDSC drug entry 1036); greater than 10 µM with PLX4720 (setting [1]); greater than 20 µM with Y-39983.
In the case of LNZTA3WT4 (glioma, adherent), the AUC in the experiment with PHA-793887 amounted to 0.987; in the experiment with Epothilone B, 0.767; with TPCA-1, 0.943; with PLX4720 (screen: GDSC drug entry 1036), 0.984; with PLX4720 (setting [1]), 0.987; with Y-39983, 0.959. In addition, the IC50 in the experiment with PHA-793887 is greater than 10.2 µM; with Epothilone B, 0.0116 µM; in the experiment with TPCA-1 it was greater than 20 µM; with PLX4720 (screen: GDSC drug entry 1036) it was greater than 10 µM; with PLX4720 (setting [1]), greater than 10 µM; in the experiment with Y-39983 it was greater than 20 µM.
Take “LOU-NH91 (lung squamous cell carcinoma, adherent)”: the AUC with PHA-793887 is 0.986; with Epothilone B, 0.911; with TPCA-1, 0.945; with PLX4720 (screen: GDSC drug entry 1036) it was 0.984; in the experiment with PLX4720 (setting [1]), 0.953; in the experiment with Y-39983, 0.96. Besides, the IC50 with PHA-793887 was greater than 10.2 µM; with Epothilone B, greater than 0.032 µM; with TPCA-1, greater than 20 µM; with PLX4720 (screen: GDSC drug entry 1036), greater than 10 µM; with PLX4720 (setting [1]), greater than 10 µM; with Y-39983, greater than 20 µM.
In the case of LS-180 (large intestine, adherent), the AUC in the experiment with PHA-793887 came out at 0.91; in the experiment with Epothilone B it was 0.353; with TPCA-1, 0.921; in the experiment with PLX4720 (screen: GDSC drug entry 1036), 0.929; with PLX4720 (setting [1]), 0.983; with Y-39983, 0.983. Further, the IC50 was greater than 10.2 µM with PHA-793887; 0.000735 µM with Epothilone B; greater than 20 µM with TPCA-1; greater than 10 µM with PLX4720 (screen: GDSC drug entry 1036); greater than 10 µM with PLX4720 (setting [1]); greater than 20 µM with Y-39983.
For the cell line “LU-99A (large cell lung carcinoma, adherent)”, the AUC with PHA-793887 came to 0.977; with Epothilone B, 0.576; with TPCA-1, 0.855; in the experiment with PLX4720 (setting [1]), 0.972; with Y-39983, 0.952. The IC50 in the experiment with PHA-793887 is greater than 10.2 µM; in the experiment with Epothilone B it was 0.00321 µM; with TPCA-1, 15.7 µM; with PLX4720 (setting [1]), greater than 10 µM; with Y-39983, greater than 20 µM.
Turning to “LU-135 (small cell lung carcinoma, suspension)”, the AUC in the experiment with PHA-793887 was 0.608; with Epothilone B it was 0.253; in the experiment with TPCA-1 it was 0.721; with PLX4720 (screen: GDSC drug entry 1036) it was 0.975; with PLX4720 (setting [1]), 0.992; with Y-39983, 0.908. The IC50 with PHA-793887 is 1.2 µM; with Epothilone B it was 0.000457 µM; with TPCA-1, 4.65 µM; with PLX4720 (screen: GDSC drug entry 1036), greater than 10 µM; with PLX4720 (setting [1]), greater than 10 µM; with Y-39983, 19.4 µM.
With LoVo (large intestine, adherent), the AUC came to 0.987 with PHA-793887; 0.486 with Epothilone B; 0.955 in the experiment with TPCA-1; 0.878 with PLX4720 (screen: GDSC drug entry 1036); 0.984 with PLX4720 (setting [1]); 0.987 with Y-39983. Also, the IC50 with PHA-793887 is greater than 10.2 µM; in the experiment with Epothilone B it was 0.00183 µM; with TPCA-1, greater than 20 µM; in the experiment with PLX4720 (screen: GDSC drug entry 1036) it was greater than 10 µM; with PLX4720 (setting [1]) it was greater than 10 µM; with Y-39983, greater than 20 µM.
